# ± gives the standard deviation of the averaged measurements. This is one part of the list.
# Test system: PfAP2-G AP2 domain (GST-tagged)
# Assay: gcPBM binding intensity (ln(normalized median fluorescence intensity)); higher = stronger DNA binding
# Method in brief: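 GST-tagged P. falciparum DNA-binding domains, expressed in E. coli (about 25 μg on average), were applied for 1 h to an Agilent 4 × 180k array of primer-extended double-stranded 36-bp intergenic genomic probes plus negative controls. The binding buffer was 1× PBS with 1% milk, 0.2 mg/ml BSA, 0.5% salmon testes DNA and 0.03% Triton X-100. Bound protein was detected with Alexa488 anti-GST antibody and scanned at 488 nm. Binding intensity is the highest Masliner-normalised natural-log median intensity across replicate spots of either probe orientation.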
row,Sequence,gcPBM binding intensity (ln)
1,GCAGTCAAAAAGGAAAATATAAAAAAAGTATATGTG [GTGCAC_negctrl_site95],10.1 ± 0.14
2,ATATATTAAAACCTAGTGCATTTGTACATATTTCAA,11 ± 0.52
3,TATATATATATATACACACACACCGTCCGTGTTAAA [CACACA_site2979],10.5 ± 0.54
4,TGAAATAAAATTTATACACACTTGCTAAATGATCAT [CACACA_site4265],9.905 ± 0.078
5,TTTTTTGTTATTAAAAGTACATTATATGCTAGTTAA [XGTACX_site8747],11.2 ± 0.73
6,TTAAAAATATTATGTACACACATTTGAGATATTTGT [CACACA_site6953],11.5 ± 0.96
7,TTCGTAATTTATATCACACACATATATCTATAATAA [CACACA_site7458],9.825 ± 0.092
8,TATCATTAATTTACATGTACATAAATGAATGTTTAT [XGTACX_site5608],11.1 ± 0.54
9,AATATATAAATATTGTGTACTTATTTTTTTATATGT [XGTACX_site4377],11.5 ± 0.85
10,ATAAATTCTATGTATACACACATATAAAATATAGAT [CACACA_site7296],10.2 ± 0.37
11,AAAGGCTATCTTATATACTCCTAAAACGCGAACGTA [CACACA_negctrl_site396],10.1 ± 0.23
12,ATTATATACATATATGCACACAAAAAAATATATATT [CACACA_site8508],10.2 ± 0.21
13,TTCCTATAAAAAAACACACACATATAAATATATATA [CACACA_site2318],9.8 ± 0.26
14,ATATGTATGAAGTGTACACATATATTGTATTTTCTT [CACACA_site5503],11.7 ± 0.91
15,GTAAGCACACATAGTTGTACATTAATAAAAATAAAT [XGTACX_site5876],11.3 ± 0.82
16,AACAATTTATATAAAGCACACATGGGAAGGAAATAC [CACACA_site1712],10.4 ± 0.24
17,TACAATTTAATATATACACACAAATAAATTATGCTT [CACACA_site856],9.62 ± 0.17
18,TATTAATACAGACACACACACACACCCAATAAAATA [CACACA_site243],10.3 ± 0.39
19,ATAAATTCATATATGAGTACTAAAAATATCTTTTTC [XGTACX_site5541],10.9 ± 0.49
20,ATATATGACAAATGTAGTACAAATTATTGTATCATA [XGTACX_site3675],11.4 ± 0.76
21,TTATTGCATATTTACACACGTACTAATTTAAACAAG [CACACA_site971],11.1 ± 0.65
22,AGAATATTTAAAAAAGGTACACAAAAACCAAAATAA [XGTACX_site8569],11.4 ± 0.75

row,Sequence,gcPBM binding intensity (ln)
1,AAAAAAAACGAACACACACACATTCAATATAAAACA [CACACA_site6170],10.2 ± 0.25
2,CAATGGTCATTTAGTTGTACTTAATTTTAAATCAAA [XGTACX_site4075],11.6 ± 1
3,GATATTATGTGTTTGGTATTTTTTGATGTTGGTAGG [XGTACX_negctrl_site563],10.2 ± 0.18
4,TAGAACAAATAAAACACACACATATAAATATAGATG [CACACA_site7325],9.94 ± 0.028
5,ATATCTATGTTTATCTCGAATAACTTAAAAAATTAT [CACACA_negctrl_site1131],9.845 ± 0.021
6,GTGCAAAATATTTTTACACACAAATTCTTACAACAG [CACACA_site7556],10.1 ± 0.028
7,TTATCACACCTTTTTTGTACGAAATAAAAAAAAAAA [XGTACX_site5564],10.8 ± 0.71
8,TAATATGCTCATGTAACACACATTTGCATATTTTTC [CACACA_site1357],9.79 ± 0.057
9,TCTTTCTAAAGATGTAGTACAAAATAAATATAATAT [XGTACX_site6564],11.5 ± 0.81
10,TTTATACAAACAACTTTATATTAATGTTTAACGGAG [GTGCAC_negctrl_site396],9.76
11,AAGGCAAACAAACACACACACATATATACATATATA [CACACA_site2122],10 ± 0.17
12,TATATACACATATATAAACACACAAAAAAAAAAAAA [CACACA_site8626],9.89 ± 0.48
13,ATACAAATTGTTTAAAGTACAAATTACACCTCTTAA [XGTACX_site6888],10.8 ± 0.46
14,TTTTTTTTTTTTTAAACATGCATATTAATATTATAT [TGCATGCA_site820],9.52 ± 0.19
15,TAAAAAGGAAGACACACACACACATATATAAATATA [CACACA_site7657],10.1 ± 0.2
16,GTATATCACACATTTGCATGTTGTCAATAGTTTATC [TGCATGCA_site134],10.23 ± 0.014
17,CATACAGACATACATACACACATACATACAGACATA [CACACA_site6996],10.09 ± 0.099
18,TGTAAATATATATATACACACACACCGAAGCAATAG [CACACA_site8960],10.3 ± 0.26
19,AATTTTATTCATTGAGCACACAAAATAAATTATCAA [CACACA_site9079],10.3 ± 0.36
20,ATCTTTTATATAAAATGTACAGAGTTTGAAAGAATA [XGTACX_site8826],10.8 ± 0.5
21,ACATTAAAAAAAAAATGTACATAAATATTTTTCCTT [XGTACX_site4361],11.1 ± 0.59
22,GTATTACAACGACACACACACCTATATATCATAGTA [CACACA_site7877],10.07 ± 0.028
